# Measured values: PubChem BioAssay AID504332 (National Center for Advancing Translational Sciences (NCATS), 2011)
# “And” between values parts separate entries of the source, which are not always exact repeats. Equal entries are not always repeated. In all, about 350,000 compounds went through this assay and about 31,000 (8.9%) were called active. The inconclusive results got no clear call from the source; some entries with a clear call stand among them for comparison. Calls follow the shape of the dose curve; as a rule, active = well fitted inhibition curve with a large enough effect; inconclusive = small, poorly fitted or top-dose-only effect; inactive = no such curve, though single readings can be large or run the other way. Potencies beside an inconclusive call are fits to weak or partial responses and may not hold up. Some structures have more than one record in an assay (separate samples or runs), and their calls can disagree.
# Molecular target: Histone-lysine N-methyltransferase EHMT2 (Homo sapiens) (UniProt Q96KQ7)
# Experiment: qHTS Assay for Inhibitors of Histone Lysine Methyltransferase G9a; also: nearly all actives have a fitted effect of over 75% in size
# Details: G9a H3K9 monomethylation, AlphaScreen, 2 h; activity, negative = inhibition: at 59 µM (top of the series) unless noted
# Method in brief: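 Quantitative HTS format: methyltransferase activity on a biotin-tagged H3K9 peptide is measured by AlphaScreen, using a rabbit anti-monomethyl-H3K9 antibody with streptavidin donor and anti-IgG acceptor beads. Final levels are 20 nM enzyme, 500 nM peptide, 20 uM SAM; 2 h RT.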
# % is scaled to controls: 0 for no effect and ±100 for the full control effect; potency is read from the fitted curve at half-maximal effect; tags tell the direction and shape of the fitted curve.
# UniProt Q96KQ7, sequence (Q96KQ7 whole entry, looked up): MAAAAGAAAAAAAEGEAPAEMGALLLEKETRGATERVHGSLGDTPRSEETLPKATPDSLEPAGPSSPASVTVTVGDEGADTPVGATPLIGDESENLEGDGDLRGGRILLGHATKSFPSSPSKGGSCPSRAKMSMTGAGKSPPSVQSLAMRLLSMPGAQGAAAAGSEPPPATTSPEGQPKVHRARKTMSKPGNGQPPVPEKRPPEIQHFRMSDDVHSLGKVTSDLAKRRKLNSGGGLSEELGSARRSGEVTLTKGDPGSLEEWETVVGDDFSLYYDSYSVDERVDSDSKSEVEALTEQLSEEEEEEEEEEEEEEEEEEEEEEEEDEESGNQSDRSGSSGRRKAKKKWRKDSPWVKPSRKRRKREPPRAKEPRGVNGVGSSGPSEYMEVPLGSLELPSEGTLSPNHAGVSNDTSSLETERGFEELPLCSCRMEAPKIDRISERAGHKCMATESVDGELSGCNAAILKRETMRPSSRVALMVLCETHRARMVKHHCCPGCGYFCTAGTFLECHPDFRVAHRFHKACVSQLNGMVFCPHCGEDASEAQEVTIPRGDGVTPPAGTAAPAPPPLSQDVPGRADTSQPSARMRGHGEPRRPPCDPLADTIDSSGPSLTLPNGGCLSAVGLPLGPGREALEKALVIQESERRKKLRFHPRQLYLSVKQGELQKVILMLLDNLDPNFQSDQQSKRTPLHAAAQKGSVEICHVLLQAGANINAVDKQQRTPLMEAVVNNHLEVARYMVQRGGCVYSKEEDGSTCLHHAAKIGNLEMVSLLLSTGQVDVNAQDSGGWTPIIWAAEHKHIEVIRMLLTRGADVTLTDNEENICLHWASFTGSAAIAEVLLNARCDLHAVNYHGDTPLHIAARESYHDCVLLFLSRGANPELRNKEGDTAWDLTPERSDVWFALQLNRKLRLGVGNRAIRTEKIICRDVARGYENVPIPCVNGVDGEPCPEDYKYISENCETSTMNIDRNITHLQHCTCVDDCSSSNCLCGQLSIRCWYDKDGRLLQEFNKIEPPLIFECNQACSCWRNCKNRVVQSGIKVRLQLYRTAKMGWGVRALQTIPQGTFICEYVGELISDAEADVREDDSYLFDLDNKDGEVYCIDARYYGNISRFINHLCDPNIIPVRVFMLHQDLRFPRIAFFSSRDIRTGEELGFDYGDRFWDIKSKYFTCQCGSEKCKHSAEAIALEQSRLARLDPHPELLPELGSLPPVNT
SMILES,Potency,"activity, negative = inhibition"
CC1CCC(NCCc2ccc3c(c2)OCO3)CC1 (stereo not drawn),"inconclusive: 28.2 µM [inhibitor, single point]",
CSc1ccc(CN2CCN(Cc3ccccc3Cl)CC2)cc1,active: 4.47 µM,
CN(C)CCc1nn[nH]n1,"inconclusive: 39.8 µM [inhibitor, single point]",
Cc1cc(O)c2c(c1)C(=O)c1cc(O)cc(O)c1C2=O,active: 8.91 µM and active: 1.68 µM,
C/C(O)=C1\C(=O)[C@@H]2[C@H]3c4c[nH]c5cccc(c45)C[C@H]3C(C)(C)N2C1=O,active: 25.1 µM,
CC(C)(C)OC(=O)c1ncn2c1[C@@H]1CCCN1C(=O)c1c(Br)cccc1-2,,inactive: 11.1% [at 12.7 µM]
CC[C@@]1(O)C(=O)OCc2c1cc1n(c2=O)Cc2cc3c(O)cccc3nc2-1,active: 2.51 µM,
CCOc1cc2c(cc1OCC)-n1cccc1C(c1ccccc1OC)NC2 (stereo not drawn),"inconclusive: 56.2 µM [inhibitor, partial curve, poor fit]",
COc1ccc(CC2C(=O)N(c3ccccc3)C(=O)N(c3ccccc3)C2=O)c(OC)c1,active: 44.7 µM,
C=C(CO)CC1CC(O)[C@]2(C)OC3CC4OC5C[C@]6(C)O[C@]7(C)CCC8OC9C[C@]%10(C)OC%11C(C)=CC(=O)OC%11CC%10OC9C[C@@H](C)C8OC7CC6O[C@]5(C)C/C=C\C4OC3CC2O1 (stereo partly drawn),,inconclusive: -60.2% [inhibitor]
CCOP(=O)(OCC)c1nc(-c2ccc(Cl)cc2)oc1NCc1ccccc1,"inconclusive: 79.4 µM [inhibitor, single point]",
COC12C(COC(N)=O)C3=C(C(=O)C(C)=C(N)C3=O)N1CC1C2N1C (stereo not drawn),active: 50.1 µM,
CCCCC(=O)N/N=C/c1c(O)n(Cc2ccco2)c(=O)[nH]c1=O,"inconclusive: 35.5 µM [inhibitor, single point]",
CCOC(=O)c1c(C)n(CCOC)c2ccc(O)cc12,,inconclusive: -77.9% [inhibitor]
Cn1cccc1/C=C1/C(=O)NC(=S)N(Cc2ccc(F)cc2)C1=O,active: 10 µM,
C=CCn1c(O)c(C(CC)=Nc2cccc(C(=O)O)c2)c(=O)[nH]c1=O,"inconclusive: 39.8 µM [inhibitor, partial curve, poor fit]",
CCOc1ccc(S(=O)(=O)N(C)c2ccc(OCC(=O)N3c4ccc(C)cc4C4CN(C)CCC43)cc2)cc1 (stereo not drawn),"inconclusive: 63.1 µM [inhibitor, partial curve, poor fit]",
COc1ccc(CCn2c(O)c(C=NCc3ccc4c(c3)OCO4)c(=O)[nH]c2=O)cc1OC,"inconclusive: 70.8 µM [inhibitor, partial curve, poor fit]",
